Where “and” joins values, the source holds several entries; their conditions need not be identical. Equal entries are not always repeated. Structures can show the parent of a compound that is named as a salt. Among all 1,800 compounds or so, about 50 (3%) showed activity. This is one part of the list.
Each molecule was assayed on mouse p16Ink4a+/- lung fibroblasts (INKBRITE, bleomycin-injured) (assay: percentage of GFP+ (p16Ink4a+) fibroblasts among all cells in well; higher = less depletion of p16Ink4a+ cells, active = 20 or less). Conditions: 1 µM; 3 days.
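Further: fibroblasts sorted 14 days after bleomycin, GFP+ and GFP− mixed 1:1 in 384-well plates (GFP− as in-well control), imaged after Hoechst and NucView530 staining, reference wells lacked compound.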

| SMILES | percentage of GFP+ |
| --- | --- |
| O=C(O)Cc1ccccc1Nc1c(Cl)cccc1Cl [Diclofenac] | inactive: 44% and inactive: 47% and inactive: 40.1% |
| N#Cc1ccc(C(c2ccc(C#N)cc2)n2cncn2)cc1 [Letrozole] | inactive: 26.3% |
| CNC(=O)c1cc(Oc2ccc(NC(=O)Nc3ccc(Cl)c(C(F)(F)F)c3)c(F)c2)ccn1 [Regorafenib] | inactive: 32.6% |
| CCc1ccc(CCOc2ccc(CC3SC(=O)NC3=O)cc2)nc1 (stereo not drawn) [Pioglitazone] | inactive: 36.4% and inactive: 38% |
| NS(=O)(=O)c1cc(Cl)c(Cl)c(S(N)(=O)=O)c1 [Diclofenamide] | inactive: 45.6% |
| CC(C)CN(C[C@@H](O)[C@H](Cc1ccccc1)NC(=O)O[C@H]1CO[C@H]2OCC[C@H]21)S(=O)(=O)c1ccc(N)cc1 [Darunavir] | inactive: 45.7% |
| Cc1ccc(NC(=O)c2ccc(CN3CCN(C)CC3)cc2)cc1Nc1nccc(-c2cccnc2)n1 [Imatinib, Imatinib Mesylate] | inactive: 32.5% and inactive: 39% |
| Nc1ccn([C@H]2CC[C@@H](CO)O2)c(=O)n1 [Zalcitabine] | inactive: 43.3% |
| C[C@H]1[C@H](C)C[C@@H](C(=O)O)C2CC[C@]3(C)C(=CC[C@@H]4[C@@]5(C)CC[C@H](O)C(C)(C)[C@@H]5CC[C@]43C)[C@@H]21 (stereo partly drawn) [Ursolic Acid] | inactive: 36% |
| CN(C)CCOc1ccc(-c2nc(-c3ccc4c(c3)CC/C4=N\O)c(-c3ccncc3)[nH]2)cc1 | inactive: 33% |
| CN(C)[C@@H](CCOc1cccc2ccccc12)c1ccccc1 [Dapoxetine] | inactive: 42.1% |
| CCCSc1ccc2[nH]c(NC(=O)OC)nc2c1 [Albendazole] | inactive: 39.7% |
| C[C@]12CC[C@@H]3c4ccc(O)cc4CC[C@H]3[C@@H]1C[C@@H](O)[C@@H]2O [Estriol] | inactive: 49.2% |
| C=C1/C(=C/C=C2/CCC[C@]3(C)[C@@H]([C@H](C)CCCC(C)C)CC[C@@H]23)C[C@@H](O)C[C@@H]1O [Alfacalcidol] | inactive: 25.5% |
| COc1cc(-c2cc3ccccc3[nH]2)[nH]c1/C=C1\N=C(C)C=C1C [Obatoclax Mesylate] | inactive: 73.2% |
| Nc1ccc(O)c(C(=O)O)c1 [Mesalazine] | inactive: 38.5% |
| O=c1ncccn1[C@@H]1O[C@H](CO)[C@H](O)C1O (stereo partly drawn) [Zebularine] | inactive: 40.4% |
| C[C@@H](O[C@H]1OCCN(Cc2nc(O)n(P(=O)(O)O)n2)[C@H]1c1ccc(F)cc1)c1cc(C(F)(F)F)cc(C(F)(F)F)c1 [Fosaprepitant] | inactive: 50.2% |

Source: the supplement of paper PMC11060735
